# About 360 (0.092%) of roughly 390,000 compounds were called active. The inconclusive results got no clear call from the source; some entries with a clear call stand among them for comparison. Calls come from the whole dose curve; as a rule, active = well fitted inhibition curve with a large enough effect; inconclusive = small, poorly fitted or top-dose-only effect; inactive = no such curve, though single readings can be large or run the other way. A potency beside an inconclusive call is a rough fit, not a confirmed value.
# Biological target: Isocitrate dehydrogenase [NADP] cytoplasmic (Homo sapiens) (UniProt O75874)
# Assay: qHTS for Inhibitors of mutant isocitrate dehydrogenase 1 (IDH1): qHTS; note: nearly all actives have a fitted effect of over 65% in size
# Settings: IDH1-R132H enzyme, NADPH consumption, diaphorase/resazurin fluorescence; series mostly up to 76.6 µM; activity change, negative = inhibition: at the top concentration
# Procedure, shortened: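 IDH1-R132H (0.5 ug/mL) preincubated 30 min with compound, then NADPH (0.016 mM) and alpha-KG (2 mM) added; 80 min at RT, pH 7.5. Remaining NADPH coupled via diaphorase/resazurin to fluorescence (540/590 nm); concentration-response curves normalized to no-enzyme control.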
# % is set by controls: 0 for no effect and ±100 for the full control effect; potency is the fitted concentration of half-maximal effect; tags give direction and shape of the fitted curve.
Compound,Potency,"activity change, negative = inhibition"
COc1cccc(CNc2ncnc3onc(C)c23)c1,"inconclusive: 50.1 µM [inhibitor, single point]",
Cc1nnc(NC(=O)C2CC(=O)N(c3ccc4c(c3)OCCO4)C2)s1 (configuration not stated),,inactive: -17.4%
Cc1ccc2[nH]c(=O)c3cc(C(=O)N(C)c4ccc(C)c(C)c4)sc3c2c1,active: 52.1 µM,
O=C1NC(=S)S/C1=C/c1ccc(N2CCOCC2)o1,"inconclusive: 50.1 µM [inhibitor, partial curve, poor fit]",
CCOc1cc(NCc2ccccc2)c2ncn(C(C)C)c2c1,"inconclusive: 63.1 µM [inhibitor, single point]",
COc1cc2ncc(S(=O)(=O)c3ccccc3)c(N3CCCC(C)C3)c2cc1OC (configuration not stated),"inconclusive: 50.1 µM [inhibitor, single point]",
COc1ccccc1Cn1c(CNS(=O)(=O)c2ccc3c(c2)CCCC3)nc2cccnc21,,inactive: -1.88%
Cc1c(C(=O)Oc2ccc(-c3cnc4ccccc4n3)cc2)cccc1[N+](=O)[O-],"inconclusive: 13.1 µM [inhibitor, partial curve, poor fit]",
CCOc1ccc(NC(=O)CN(Cc2ccccc2)S(=O)(=O)c2ccc(Cl)cc2)cc1,"inconclusive: 50.1 µM [inhibitor, single point]",
CCOc1ccc(C2C(C(=O)Nc3ccc(OC)cc3)=C(C)Nc3nc(SCc4ccc(Cl)cc4)nn32)cc1 (configuration not stated),,inactive: 11.8%
Cc1ccc(-c2[nH]nc(N)c2N=Nc2ccccc2C)cc1,,inactive: -1.24%
Cc1ccc(N(C(=O)C(F)(F)F)C(C(=O)NC2CCCCC2)c2cccs2)cc1 (configuration not stated),"inconclusive: 14.7 µM [inhibitor, partial curve, poor fit]",
O=C(/C=C/c1cccs1)Nc1scc(-c2ccccc2)c1C(=O)O,"inconclusive: 29.3 µM [inhibitor, full curve]",
Cc1cccc(NC(=O)C(CC(C)C)NC(=O)C2CCC(C)CC2)n1 (configuration not stated),"inconclusive: 58.5 µM [inhibitor, partial curve, poor fit]",
CCOc1ccc(S(=O)(=O)Nc2ccc(C(=O)NCc3ccncc3)cc2)cc1,"inconclusive: 52.1 µM [inhibitor, single point]",
CC(=O)Oc1ccc2c(=O)c(N3C(=O)c4ccccc4C3=O)c(C)oc2c1,"inconclusive: 58.5 µM [inhibitor, single point]",
COc1cccc(C(C(=O)NC2CCCCC2)N(C(=O)Cc2cccs2)c2ccc(-n3cnnn3)c(OC)c2)c1 (configuration not stated),"inconclusive: 18.5 µM [inhibitor, full curve]",
Cc1cc(C)c(O)c(-c2n[nH]c3c2C(c2cccc(O)c2)N(Cc2ccco2)C3=O)c1 (configuration not stated),active: 16.5 µM,
Cc1sc(NC(=O)c2ccco2)c(C(c2cccnc2)N2CCC(C)CC2)c1C (configuration not stated),"inconclusive: 16.5 µM [inhibitor, full curve]",
CCC/C=C/c1ccc(CN2C(CC(C)C)C(=O)N(Cc3cn(CCC4OCCCO4)nn3)CCS2(=O)=O)cc1 (configuration not stated),"inconclusive: 50.1 µM [inhibitor, single point]",
O=C(NC(Nc1nc2ccc([N+](=O)[O-])cc2s1)(C(F)(F)F)C(F)(F)F)c1ccccc1Cl,"inconclusive: 26.1 µM [inhibitor, full curve]",

Compound,Potency,"activity change, negative = inhibition"
Cc1cc(C(C)(C)C)cc(S(=O)(=O)Nc2ccc(C(=O)O)cc2)c1C,"inconclusive: 44.7 µM [inhibitor, partial curve, poor fit]",
CC1CCN(c2ccc(-c3cccc(NC(=O)C(F)(F)F)c3)nn2)CC1,,inactive: -2.84%
CCOC(=O)c1ccc(N2C(=O)c3n[nH]c(C)c3C2c2ccccc2OC)cc1 (configuration not stated),"inconclusive: 50.1 µM [inhibitor, single point]",
CCC(=O)C1=C(c2ccc(Cl)cc2)N(C(=O)CC)n2c(C)nnc2S1,active: 44.7 µM,
Cc1cc(=O)n2[nH]c(-c3ccsc3-n3c(C)ccc3C)cc2n1,"inconclusive: 52.1 µM [inhibitor, partial curve, poor fit]",
O=C1CCCc2cc(S(=O)(=O)N3CCCC(C(=O)Nc4ccc(F)c(Cl)c4)C3)ccc2N1 (configuration not stated),"inconclusive: 50.1 µM [inhibitor, single point]",
CC1CN(C(=O)N2CCC(C(=O)N3CCN(c4ccccc4)CC3)CC2)c2cc(Cl)ccc2O1 (configuration not stated),,inactive: 0.831%
O=C(Cc1ccc(Cl)cc1)NNS(=O)(=O)c1ccc([N+](=O)[O-])cc1,,inactive: 3.1%
NNC(=O)Nc1cccc(C(F)(F)F)c1,,inactive: 0%
CC(C)Oc1ccc(CNS(=O)(=O)c2ccc3c(c2)C(C)(C)C(=O)N3C)cc1,"inconclusive: 50.1 µM [inhibitor, single point]",
Cc1nnsc1NC(=O)OCc1ccc(C(C)(C)C)cc1,"inconclusive: 14.7 µM [inhibitor, single point]",
N#CC1=C(c2ccccc2)/C(=C/c2ccccc2)OC1=O,"inconclusive: 58.5 µM [inhibitor, single point]",
CCn1c2ccccc2c2c3ncc4cccn4c3ccc21,"inconclusive: 23.3 µM [inhibitor, partial curve]",
Cc1ccc(C)c(S(=O)(=O)c2nnn3c2nc(NC(C)C)c2sccc23)c1,"inconclusive: 44.7 µM [inhibitor, partial curve, poor fit]",
O=S(=O)(Nc1ccc(O)c(Sc2nc3ccccc3s2)c1)c1ccc(F)cc1,"inconclusive: 58.5 µM [inhibitor, single point]",
O=C(CS(=O)(=O)c1cccc2nsnc12)N1CCN(c2cccc(C(F)(F)F)c2)CC1,,inactive: -8.17%
COC(=O)c1[nH]c2ccc(Br)cc2c1NC(=O)CN1CCN(C2CCCCC2)CC1,,inactive: 4.99%
CCN(CC)c1ccc2c(c1)oc(=O)c1c(Cl)cc(=O)oc12,"inconclusive: 58.5 µM [inhibitor, single point]",
N#CC1=C2N=C(N)c3ccccc3N2C2=C(C(=O)CCC2)C1c1cccc(Cl)c1 (configuration not stated),"inconclusive: 44.7 µM [inhibitor, partial curve, poor fit]",
CCOC(=O)c1cc2c(=O)n3cccc(C)c3nc2n(Cc2ccco2)c1=NC(=O)c1cccnc1,"inconclusive: 58.5 µM [inhibitor, single point]",
Cc1cccc(N2CCN(c3ccc(C(=O)O)cc3NC(=O)c3cccc(Cl)c3)CC2C)c1 (configuration not stated),"inconclusive: 50.1 µM [inhibitor, single point]",

Compound,Potency,"activity change, negative = inhibition"
COc1ccc(-c2cn3cccnc3n2)cc1NC(=O)C(C)Oc1ccccc1 (configuration not stated),"inconclusive: 58.5 µM [inhibitor, single point]",
N#CCc1c(C#N)c(N)nc(N2CCN(Cc3ccc4c(c3)OCO4)CC2)c1C#N,,inactive: 4.11%
CCCCC(NC(=O)CCc1c(C)c2cc3c4c(oc3c(C)c2oc1=O)CCCC4)C(=O)O (configuration not stated),active: 46.5 µM,
CCOC(=O)C1=C(C)NC(SC(C)=O)=NC1c1ccc(OC(C)=O)c(OC)c1 (configuration not stated),"inconclusive: 52.1 µM [inhibitor, single point]",
N#CC1=C2SCN(C3CCCCC3)CN2C(=O)CC1c1c(F)cccc1Cl (configuration not stated),,inactive: 2.37%
CC1(C)CC(=O)C2=C(C1)N1C(=C(C#N)C2c2ccccc2Cl)N=C(N)c2ccccc21 (configuration not stated),"inconclusive: 39.8 µM [inhibitor, partial curve]",
CCOC(=O)COc1ccc(CC)cc1C(=O)c1ccn2nc(-c3ccccc3)cc2n1,"inconclusive: 31.6 µM [inhibitor, partial curve, poor fit]",
Cc1ccc(C2=NNC(=Nc3ccc(F)cc3)SC2)cc1,"inconclusive: 52.1 µM [inhibitor, single point]",
CCOC(=O)c1cccc(NC(=O)Nc2ccc3c(c2)N(C)C(=O)c2ccccc2S3)c1,"inconclusive: 70.8 µM [inhibitor, single point]",
COc1ccc2c(c1)C1(Nc3ccccc3-c3nc4ccccc4n31)C(=O)N2 (configuration not stated),"inconclusive: 52.1 µM [inhibitor, single point]",
CCOc1cc(C)c(C(C)C)cc1S(=O)(=O)n1ccnc1CC,"inconclusive: 63.1 µM [inhibitor, single point]",
COc1cc2c(cc1OC)CN(c1nc(-c3cccnc3)nc3ccccc13)CC2,"inconclusive: 50.1 µM [inhibitor, single point]",
COc1cc(-c2nc3ccc(Cl)cn3c2Nc2ccc3c(c2)OCO3)ccc1O,"inconclusive: 44.7 µM [inhibitor, partial curve]",
COc1cccc(C(C(=O)NC2CCCCC2)N(C(=O)c2cccs2)c2ccc3c(c2)OCO3)c1 (configuration not stated),"inconclusive: 52.1 µM [inhibitor, partial curve, poor fit]",
CCC(=O)OC1=CN(Cc2ccccc2)S(=O)(=O)c2ccccc21,"inconclusive: 44.7 µM [inhibitor, partial curve, poor fit]",
N#C/C(=C\c1c(Oc2ccc(F)cc2)nc2ccccn2c1=O)c1nc2ccccc2s1,"inconclusive: 50.1 µM [inhibitor, single point]",
Nc1nc(N)c2cc(CNc3ccc(Cl)c(Cl)c3)ccc2n1,"inconclusive: 50.1 µM [inhibitor, single point]",
Cc1ccc(-n2c(SCc3ccccc3C)nc3[nH]ncc3c2=O)cc1C,"inconclusive: 44.7 µM [inhibitor, single point]",
COc1ccc(Oc2ccc(/C=C/C(=O)c3ccc(O)cc3)cc2[N+](=O)[O-])cc1,"inconclusive: 58.5 µM [inhibitor, single point]",
CCOC(=O)c1ccc(/C=C2/C=C(c3ccccc3)N(c3ccc(Cl)c(C(=O)O)c3)C2=O)cc1,"inconclusive: 44.7 µM [inhibitor, partial curve, poor fit]",

# Source: PubChem BioAssay AID602179 (National Center for Advancing Translational Sciences (NCATS), 2012)
